# Experimental data reported in publication PMC4336329 (PLoS ONE, 2015).
# The campaign covered roughly 310,000 compounds. About 2,200 (0.71%) showed an effect of 50% or more. The effect is printed as a negative number. Some of the results follow.
# Target: human ether-à-go-go-related gene (hERG) potassium channel (human, UniProt Q12809)
# Test: primary screen, population patch clamp on CHO cells stably expressing hERG
# Sequence of human ether-à-go-go-related gene (hERG) potassium channel (Q12809 whole entry, looked up): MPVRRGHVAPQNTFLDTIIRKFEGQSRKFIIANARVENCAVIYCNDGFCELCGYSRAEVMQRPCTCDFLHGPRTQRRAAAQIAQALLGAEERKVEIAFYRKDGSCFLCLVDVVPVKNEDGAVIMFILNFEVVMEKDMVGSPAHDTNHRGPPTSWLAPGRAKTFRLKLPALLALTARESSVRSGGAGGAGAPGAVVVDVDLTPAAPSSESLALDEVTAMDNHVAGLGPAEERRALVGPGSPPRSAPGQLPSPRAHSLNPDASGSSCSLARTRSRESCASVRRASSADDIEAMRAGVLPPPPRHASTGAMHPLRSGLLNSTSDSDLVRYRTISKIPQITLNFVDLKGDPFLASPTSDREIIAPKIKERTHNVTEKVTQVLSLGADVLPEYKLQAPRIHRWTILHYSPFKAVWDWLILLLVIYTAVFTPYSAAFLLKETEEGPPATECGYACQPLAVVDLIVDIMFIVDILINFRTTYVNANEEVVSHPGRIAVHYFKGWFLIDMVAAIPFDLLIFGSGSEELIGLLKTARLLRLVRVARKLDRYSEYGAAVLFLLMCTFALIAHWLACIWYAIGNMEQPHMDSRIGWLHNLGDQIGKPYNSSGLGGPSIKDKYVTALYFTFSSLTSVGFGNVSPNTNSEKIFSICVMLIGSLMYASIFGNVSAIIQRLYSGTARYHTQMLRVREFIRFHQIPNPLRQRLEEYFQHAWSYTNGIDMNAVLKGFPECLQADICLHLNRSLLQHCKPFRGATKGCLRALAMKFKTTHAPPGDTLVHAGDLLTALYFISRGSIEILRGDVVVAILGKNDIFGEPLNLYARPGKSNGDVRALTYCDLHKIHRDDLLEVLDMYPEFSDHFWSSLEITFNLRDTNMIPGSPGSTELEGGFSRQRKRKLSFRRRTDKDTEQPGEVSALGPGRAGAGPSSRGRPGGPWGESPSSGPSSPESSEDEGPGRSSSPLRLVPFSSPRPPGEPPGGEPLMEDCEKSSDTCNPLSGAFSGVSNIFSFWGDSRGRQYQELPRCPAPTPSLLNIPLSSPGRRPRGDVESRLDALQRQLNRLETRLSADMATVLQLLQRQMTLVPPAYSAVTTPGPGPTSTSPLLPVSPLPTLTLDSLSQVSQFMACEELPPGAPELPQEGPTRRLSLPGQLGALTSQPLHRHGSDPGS
row,SMILES,"hERG current change (%, negative = inhibition) at 1uM [%]"
1,Nc1nnc(SCc2ccccc2F)n1-c1ccccc1,10.2
2,CC(NC(=O)NCC1CCCO1)(C(F)(F)F)C(F)(F)F (centres unmarked),-0.248
3,O=C(NCCCO)c1ccc2[nH]c3c(c2c1)CCCC3,14.9
4,CC1CCN(c2ccc3nnc(CCC(=O)N4CCCCC4)n3n2)CC1,12.9
5,O=C(Nc1cc(S(=O)(=O)N2CCOCC2)ccc1N1CCOCC1)c1cccs1,-4.52
6,O=C(O)C(Sc1ccncn1)c1ccccc1 (centres unmarked),14.4
7,CCN(CCO)Cc1csc2ccc(C(C)(C)C)cc12.Cl,-1.53
8,CCOC(=O)c1c(NC(C)=O)sc2c(O)cccc12,10.1
9,CCOc1ccc(C(=O)C(C)OC(=O)C2CCN(c3ccc(C(F)(F)F)cn3)CC2)cc1 (centres unmarked),-3.61
10,CCCn1c(N2CCN(C(=O)N3CCCCC3)CC2)nc2ccccc21.Cl,5.94
11,COc1cc(/C=C2\C(=N)N3N=C(C)SC3=NC2=O)cc(Cl)c1OCCOc1ccc(NC(C)=O)cc1,12.2
12,CCn1cc(C(=O)NCCCOC)c(=O)c2cc(S(=O)(=O)N3CCCC3)ccc21,12.3
13,COc1cc(/C=C/c2nc3ccccc3c(=O)[nH]2)cc(Br)c1O,20.1
14,c1ccc(-c2nc(-c3ccc(-c4ccon4)s3)no2)cc1,15.8
15,CCn1c(SCC(=O)NCc2ccc3c(c2)OCO3)nnc1-c1c[nH]c2ccccc12,14.9
16,COc1cc(OC)cc(-c2c(C#Cc3ccsc3)c3cc(-c4ccc5[nH]ccc5c4)ccc3n2C)c1,9.5
17,COCCN1C(=O)N[C@@H](c2cccc(C(F)(F)F)c2)[C@H](C(=O)OC)[C@H]1C,8.01
18,CC(C)c1ccc(CN(C(=O)c2cc3ccccc3oc2=O)C2CCS(=O)(=O)C2)cc1 (centres unmarked),-13
19,CCN(CC)C(=O)CSc1nc2c(sc(=S)n2-c2ccccc2)c(=O)n1Cc1ccco1,-86.3
20,CC(=O)c1nc2ccccc2n1CCc1ccccc1,4.84
21,O=C(NCCCNc1ccc(C(F)(F)F)cc1[N+](=O)[O-])c1ccc(Cl)cc1,-6.21
22,O=C(COc1nc2ccccc2nc1N1CCOCC1)NC1CCCCC1,-5.01
23,CCOC(=O)C1(C)NC(c2ccco2)C2C(=O)N(c3ccccc3)C(=O)C21 (centres unmarked),15.2

row,SMILES,"hERG current change (%, negative = inhibition) at 1uM [%]"
1,CC1C/C(=N\Nc2ccc(S(N)(=O)=O)cc2[N+](=O)[O-])CC(C)(C)C1 (centres unmarked),6.5
2,COc1ccc(C(CNC(=O)CSc2ccc(Br)cc2C)N2CCOCC2)cc1 (centres unmarked),5.16
3,CCOC(=O)c1ccc2c(c1)nc(SCC(=O)c1cc3ccccc3o1)n2CC,15.3
4,COc1cccc(C(=O)NN2c3ccccc3CCc3ccccc32)c1,10.8
5,CC(=O)N1CCN2C(=O)C1CCCC(=O)c1cc(C)ccc12 (centres unmarked),18.2
6,CCc1ccc(NS(=O)(=O)c2cccc3nonc23)cc1,7.65
7,Cc1ccc(CNC(=O)c2ccc(OCC(C)C)cc2)n1C,11.9
8,CC(=O)Nc1ccc(N(CC(O)Cn2c3ccccc3c3ccccc32)S(=O)(=O)c2ccc(C)cc2)cc1 (centres unmarked),5.25
9,O=C(OCC(=O)N1CCCC1)c1ccco1,10.1
10,COC(=O)c1ccc(NCC(=O)N2CCCCCC2)cc1,10.3
11,Cl.O=C(Cc1ccccc1)OC(COCc1ccccc1)CN1CCOCC1 (centres unmarked),6.63
12,CCOC(=O)Cc1cnc(NC(=O)CSc2nc(C)c(CC)c(=O)[nH]2)s1,13.2
13,C(=N\Nc1nc(N2CCCC2)nc(N2CCCC2)n1)/c1cccnc1,14.1
14,CC1CCc2nc(NC(=O)C3COc4ccccc4O3)sc2C1 (centres unmarked),3.02
15,Cc1cccc(OCC(=O)Nc2ccc3c(c2)nc(CCN2CCN(c4ccccn4)CC2)n3C)c1,-67
16,O=C(Nc1ccc2c(c1)OCO2)c1n[nH]c(=O)c2ccccc12,11.1
17,CCOC(=O)C(Cc1ccccc1)c1ccnc2nc(N)nn12 (centres unmarked),0.826
18,COc1cc(CN2CCN(C(=O)c3cccc4ccccc34)CC2)cc(OC)c1OC.O=C(O)C(=O)O,8.51
19,ClC(Br)=C(n1cnc2ccccc21)n1cnc2ccccc21,-3.11
20,Cc1ccc(-c2nnn(CC(=O)N(C)C3CCCCC3)n2)o1,10.9
21,Cc1ccc2cc(CCNC(=O)C3CCCCC3)c(=O)[nH]c2c1C,2.85
22,O=C(NCc1ccc2c(c1)OCO2)c1sccc1Br,8.52
23,CCOc1ccc(CC(=O)N/N=C/c2cccnc2)cc1OCC,12.8

row,SMILES,"hERG current change (%, negative = inhibition) at 1uM [%]"
1,CSC1=NC(C)(C)C=C(/C=C/c2ccc(Cl)cc2)N1,-5.72
2,COC(=O)c1[nH]c2cc(OC)ccc2c1NC(=O)CCN1CCCC(C)(C)C1,-3.05
3,Cc1noc(C)c1C(=O)N(CC(=O)NC1CCCC1)Cc1ccccc1F,6.58
4,CCCCn1c(O)c(/C=C/C=Nc2ccccc2)c(=O)[nH]c1=O,-1.94
5,N#Cc1c(SCC(=O)Nc2nncs2)sc2c(O)cc(=O)[nH]c12,11.7
6,COc1cc(NC2c3ccccc3C(=O)N2Cc2ccc3c(c2)OCO3)cc(OC)c1 (centres unmarked),2.66
7,COc1ccc(CNC(=O)C2CCN(S(=O)(=O)c3cccc4cccnc34)CC2)cc1,-5.81
8,O=C(COC(=O)c1cccc(F)c1)Nc1cccnc1Cl,5.58
9,Cc1ccc(Oc2nc(-c3ccccc3)ncc2S(=O)(=O)c2ccc(C)cc2)cc1,12.1
10,Cc1nc2ccccc2c(=O)n1NC(=O)/C=C/c1ccccc1Cl,-51.1
11,Nc1nc(SCc2ccc(Cl)cc2)ns1,3.67
12,O=C(COc1cccc2c1CCN(Cc1ccccc1)C2=O)N1CCCCC1,8.21
13,COc1nc(-c2ccccc2)ccc1-c1noc(-c2cccs2)n1,0.091
14,CN1C(=O)C(Cc2ccc(OCc3ccccc3)cc2)C(=O)N(C)C1=O,19.1
15,CCn1c(CSCc2ccccc2)n[nH]c1=S,13.8
16,O=C(NC1CC1)c1ccc(CSCc2ccccc2Cl)o1,13.4
17,Cc1ccccc1Cn1nc(C)c(NC(=O)c2cc(-c3ccco3)on2)c1C,-3.52
18,Cc1scc(C(=O)NNC(=S)NCC2CCCO2)c1-c1ccccc1 (centres unmarked),9.6
19,COc1ccc([C@H]2/C=C\CN(C(=O)c3ccccc3)[C@@H](C)C(=O)N2Cc2ccc(F)cc2)cc1,-5.9
20,COc1cc(/C=N/O)cc(Br)c1OC,10.9
21,OCC1(Cc2ccccc2)CCN(Cc2cnn(-c3ccccc3F)c2)CC1,-4.22
22,O=c1[nH]c(=S)[nH]c(O)c1N=Nc1ccc2c(c1)OCO2,8.74
23,COc1cc(CN2CCCCCC2)c([N+](=O)[O-])cc1OC,8.92

row,SMILES,"hERG current change (%, negative = inhibition) at 1uM [%]"
1,Cc1sc(-n2c(C)cc(C=O)c2C)c(C(=O)O)c1C,5.17
2,COc1ccc(NC(=O)COC(=O)[C@@H]2CCCN2S(=O)(=O)c2ccccc2F)c(OC)c1,9.01
3,CCCc1cc(=O)[nH]c(SCC(=O)NC(=O)c2ccccc2)n1,5.94
4,COc1cc(OC)c(NC(=O)CCc2nc(-c3ccc(C)cc3)no2)cc1Cl,1.02
5,Cc1ccccc1C(=O)NNC(=O)c1cc(S(=O)(=O)N2CCOCC2)ccc1C,9.44
6,C/C(=N\Nc1nc(C)cc(-c2ccccc2)n1)c1ccccc1,18.9
7,Cc1cc([N+](=O)[O-])nn1CC(=O)NNC(=S)Nc1ccc(F)cc1,5.99
8,CC(C)Oc1cccc(C(=O)C2CCCN(Cc3cccn3-c3ccccn3)C2)c1 (centres unmarked),-81.7
9,Fc1ccccc1-c1nc(NCc2ccccc2)c2ccccc2n1,12.4
10,Cc1ccc(CCNC(=O)CCn2c(=O)c3cccn3c3ccc(F)cc32)cc1,-1.59
11,CC(C)NS(=O)(=O)c1ccc(N2C(=O)c3ccccc3C2=O)cc1,1.18
12,CC(C)CC(=O)NC(=S)Nc1nc(-c2ccc(Cl)cc2)cs1,-4.42
13,CC(=O)c1ccc(NC(=O)C2CCC(C)(C(=O)O)C2(C)C)cc1 (centres unmarked),-4.25
14,C=CC[C@H]1CC(C)=C[C@H](CC=C)N1C(=O)c1cc(COc2ccccc2SC)on1,12.9
15,Cc1c(C(=O)N(C)C)sc(NC(=O)c2cccc([N+](=O)[O-])c2)c1C#N,15.8
16,O=C(CN1CC(c2ccccc2)CC1=O)Nc1ccc(F)cc1 (centres unmarked),2.7
17,O=C(NN1CC(C(=O)OCc2ccccc2F)CC1=O)c1ccccc1 (centres unmarked),-16.9
18,CCc1ccc(N2Cc3ccccc3C2)cc1,7.99
19,CC(NC(=O)c1cc(F)c(F)cc1Cl)c1ccncc1 (centres unmarked),-2.75
20,COC(=O)c1ccc(NC(=O)Cn2nc(-c3ccncc3)nc2SCC(=O)Nc2nccs2)cc1,5.27
